Assay results: publication PMC4336329 (PLoS ONE, 2015)
Screen size: about 310,000 compounds; about 14,000 (4.5%) showed an effect of 50% or more. The effect is printed as a negative number. Some of the results follow.

target: human ether-à-go-go-related gene (hERG) potassium channel (human, UniProt Q12809); test: primary screen, population patch clamp on CHO cells stably expressing hERG
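Further: peak tail current of the secondary pulse compared with the same well before compound.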

Sequence of human ether-à-go-go-related gene (hERG) potassium channel (Q12809 whole entry, looked up): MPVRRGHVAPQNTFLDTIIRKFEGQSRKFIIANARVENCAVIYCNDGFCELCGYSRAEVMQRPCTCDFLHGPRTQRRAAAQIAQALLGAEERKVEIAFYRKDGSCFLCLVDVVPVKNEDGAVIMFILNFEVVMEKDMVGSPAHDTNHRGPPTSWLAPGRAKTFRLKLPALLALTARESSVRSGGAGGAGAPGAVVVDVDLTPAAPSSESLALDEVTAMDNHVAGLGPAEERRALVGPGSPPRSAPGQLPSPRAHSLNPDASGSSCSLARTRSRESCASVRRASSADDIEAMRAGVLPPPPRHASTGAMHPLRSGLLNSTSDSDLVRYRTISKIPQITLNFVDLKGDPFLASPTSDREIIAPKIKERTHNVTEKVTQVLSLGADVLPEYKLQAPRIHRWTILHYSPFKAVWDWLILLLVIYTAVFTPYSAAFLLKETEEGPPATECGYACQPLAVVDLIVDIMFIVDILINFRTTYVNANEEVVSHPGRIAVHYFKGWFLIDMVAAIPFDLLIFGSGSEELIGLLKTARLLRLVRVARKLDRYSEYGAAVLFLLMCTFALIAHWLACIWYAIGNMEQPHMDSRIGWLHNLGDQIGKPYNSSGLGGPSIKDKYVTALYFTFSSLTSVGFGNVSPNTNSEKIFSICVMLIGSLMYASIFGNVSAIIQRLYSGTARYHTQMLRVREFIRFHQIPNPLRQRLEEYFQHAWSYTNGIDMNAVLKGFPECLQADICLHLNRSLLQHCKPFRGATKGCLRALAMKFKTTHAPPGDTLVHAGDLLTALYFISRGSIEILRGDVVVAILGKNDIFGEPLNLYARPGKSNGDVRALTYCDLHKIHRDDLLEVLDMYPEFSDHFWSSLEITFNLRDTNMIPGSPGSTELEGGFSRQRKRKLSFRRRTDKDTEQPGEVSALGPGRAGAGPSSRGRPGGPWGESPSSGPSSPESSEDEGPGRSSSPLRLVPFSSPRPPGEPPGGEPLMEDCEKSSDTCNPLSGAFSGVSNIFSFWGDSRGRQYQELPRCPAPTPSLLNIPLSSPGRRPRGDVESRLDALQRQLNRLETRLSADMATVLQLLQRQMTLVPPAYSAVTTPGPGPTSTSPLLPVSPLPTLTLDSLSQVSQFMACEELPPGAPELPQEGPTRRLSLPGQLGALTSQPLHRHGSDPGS

Row | Compound | hERG current change (%, negative = inhibition) at 10uM
1 | CS(=O)(=O)N1CCC(CO)(Cc2ccccc2C(F)(F)F)CC1 | 3.31%
2 | O=C(Cc1ccccc1)N1CCN(C2CCCC2)CC1 | 0.401%
3 | O=C(CCN1CCc2ccccc2C1)Nc1ccc2c(c1)OCO2 | -23.6%
4 | CCOC(=O)c1cc(CC)sc1/N=C/C1C(=O)CC(C)(C)CC1=O | 14.9%
5 | Cc1ccc(-c2cc(C(=O)NCCCN3CCOCC3)c3ccc(Cl)c(C)c3n2)cc1 | 18.1%
6 | COc1ccc(CNC(=O)COC(=O)c2c(-c3c(F)cccc3Cl)noc2C)cc1OC | -6.07%
7 | CCCCN1CNC(=S)N(c2cc(C)ccc2C)C1 | 4.19%
8 | Cc1cc(C)nc(NC(=O)/C=C/c2ccc(Cl)cc2Cl)c1 | -0.362%
9 | O=CNn1cnc2c(oc3nc(-c4ccccc4)cc(-c4ccco4)c32)c1=O | 9.19%
10 | Cc1cc(-c2nnc(SCC(=O)Nc3ccccc3C)n2N)n[nH]1 | -3.62%
11 | Cc1cccc(NC(=O)C2CC2c2ccccc2)c1C (stereo not shown) | 5.64%
12 | COc1cc(-c2nnc3n(CCc4ccccc4)c(=O)c4ccccc4n23)cc(OC)c1OC | -19.7%
13 | Cn1c(SCC(=O)N2CCCC2)nnc1-c1cnccn1 | -21.3%
14 | CC(C)(CC(=O)O)CC(=O)Nc1ccc(Oc2ccc(C(C)(C)C)cc2)nc1 | 6.7%
15 | Cc1ccccc1N=Nc1c(O)n(C)c2ccccc12 | 2.46%
16 | Cc1cc(NC(=O)C2CC(c3cccc(Br)c3)=NO2)no1 (stereo not shown) | -7.78%
17 | CCOC(=O)c1c(S(=O)(=O)N2CCCCCC2)c(C)n(C)c1C | 1.2%
18 | N#CCCn1c(Cl)nc2ccccc21 | 9.23%
19 | CN(c1ccc(OCc2ccc([N+](=O)[O-])cc2)cc1)S(=O)(=O)c1ccccc1 | 4.61%
20 | COc1ccccc1C1/C(=C(/O)c2ccc(Cl)cc2)C(=O)C(=O)N1CCN1CCOCC1 (stereo not shown) | 12.3%
21 | Cc1oc2ccccc2c1CNC(=O)N(C)C | 14.2%
22 | CCC1CCc2sc(C(=O)NCc3ccccn3)cc2C1 (stereo not shown) | -3.79%

Row | Compound | hERG current change (%, negative = inhibition) at 10uM
23 | O=C(Nc1ccc(N2CCN(c3ncccc3C(F)(F)F)CC2)nc1)c1cccs1 | -3.28%
24 | COc1ccc(CCNC(=O)C2CCCN(Cc3nc(-c4ccccc4C)oc3C)C2)cc1OC (stereo not shown) | -57.7%
25 | C[C@H](NC(=O)[C@@H]1Cc2ccccc2CN1)C(=O)NCC1CCC(C(=O)O)CC1.Cl (stereo partly shown) | 13.1%
26 | CSC1=NCCN1C(=O)c1c(F)cccc1F | 2.34%
27 | O=c1c2cnn(-c3ccccc3)c2nc(-c2cccs2)n1-c1ccc(Cl)cc1 | 10.4%
28 | COc1ccccc1CC(=O)Nc1cc2oc3ccccc3c2cc1OC | 5.65%
29 | Cc1cccc(NC(=O)NCC(c2cccnc2)N2CCOCC2)c1 (stereo not shown) | 8.89%
30 | COc1ccccc1N1CCN(C(=O)CCCn2nc(C)c([N+](=O)[O-])c2C)CC1 | -19.1%
31 | COc1ccc(CN2CC(=O)N(c3ccc(Cl)cc3)C2=S)cc1OC | -6.33%
32 | O=C(O)C1CCN(c2c([N+](=O)[O-])cc(C(F)(F)F)cc2[N+](=O)[O-])CC1 | 2.38%
33 | CC(C)C[C@H](NP(=O)([O-])O[C@@H]1O[C@@H](C)[C@H](O)[C@@H](O)[C@H]1O)C(=O)N[C@@H](Cc1c[nH]c2ccccc12)C(=O)[O-].[Na+] | 6.88%
34 | COc1ccc(F)c(CN2CCCC(CNS(=O)(=O)c3cccc4cccnc34)C2)c1 (stereo not shown) | -5.75%
35 | COC(=O)Cn1ncc(N2C3CC(CC(C)(C)C3)C2C)c(Cl)c1=O (stereo not shown) | -37.1%
36 | COc1ccc(CCNc2ccc(C(CC(N)=O)NC(=O)c3cc(C)cc(C)c3)cc2[N+](=O)[O-])cc1 (stereo not shown) | 6.25%
37 | Cc1ccc(S(=O)(=O)N2[C@@H](c3ccc(Cl)cc3)C(C(=O)O)=CC[C@H]2c2cccc(Cl)c2)cc1 | 3.81%
38 | COc1ccc(/C=C2\N=C(C)OC2=O)cc1OC(C)=O | 14.2%
39 | CCCCc1nc2ccccc2c(NC(=O)CN2CCN(C)CC2)c1CCC.O=C(O)C(=O)O | -12.1%
40 | O=C(O)C1CC=CCC1C(=O)NNc1c(Cl)cc(Cl)cc1Cl (stereo not shown) | 24%
41 | COC(=O)c1cccc(Oc2cccc(C(F)(F)F)c2)n1 | 13%
42 | CC(=O)NC1=C(NC2CCS(=O)(=O)C2)C(=O)c2ccccc2C1=O (stereo not shown) | 18.4%
43 | COc1ccc(NC(=O)CC2C(=O)NCCN2C(=O)Nc2ccc(C(F)(F)F)cc2)cc1 (stereo not shown) | 15.4%
44 | COc1cc(C(=O)NNC(=O)C2CCCC2)cc(OC)c1OC | 23.5%

Row | Compound | hERG current change (%, negative = inhibition) at 10uM
45 | NC(=O)NCCCC(=O)O | 10%
46 | CC1CCN(CCc2nc3ccccc3[nH]2)CC1 | -63.7%
47 | COc1cc(/C=N/NC(=O)c2cccc3ccccc23)ccc1OCC(N)=O | 6.41%
48 | Cc1cc(C)n(C(=O)c2ccc(S(=O)(=O)N3CCCC3)cc2)n1 | -0.105%
49 | Cc1cc(-c2onc(C)c2C(=O)N/N=C/c2ccccc2)no1 | 6.43%
50 | CC(C)N(C(=S)NCc1ccccc1)c1ccccc1 | 18%
51 | CCOC(=O)C1CCN(C(c2cc3c(C)ccc(C)c3[nH]c2=O)c2nnnn2C2CCCCC2)CC1 (stereo not shown) | -16%
52 | O=C(CSc1nnc(-c2ccccc2)o1)c1nnc(-c2ccccc2)o1 | 20.1%
53 | O=C1C2CC=C(Cl)CC2C(=O)N1CCC[n+]1cccc2ccccc21 (stereo not shown) | 8.95%
54 | CCOC(=O)CC(NC(=O)CCc1c(C)nc2nc(C)nn2c1C)c1ccc(OC(C)C)cc1 (stereo not shown) | -25.9%
55 | CC(=O)c1ccc2c(c1)C1C=CCC1C(c1cc3c(cc1Br)OCO3)N2 (stereo not shown) | 12%
56 | O=C(O)COCC(=O)N1CCN(c2cc(C(F)(F)F)nc3ccccc23)CC1 | 19.4%
57 | COc1ccc(NCc2nc3ccccc3n2CCOc2ccccc2)cc1 | 2.18%
58 | CCOC(=O)N1CCN(c2ncnc3nc[nH]c23)CC1 | 8.95%
59 | COc1ccccc1C(CNC(=S)NCc1ccccc1)N1CCCC1 (stereo not shown) | -2.75%
60 | Cc1c(C(=O)N2CCN(c3ccccn3)CC2)oc2ccccc12 | -28%
61 | CCC(C(=O)NC(CC(=O)O)c1ccc(Cl)cc1)c1ccccc1 (stereo not shown) | 28.7%
62 | C/C=C(\C)CN1CCC(n2nccc2NC(=O)CCCc2ccccc2)CC1 | -62.9%
63 | CCCCCCOc1ccc(N2C(=O)CC(NCc3ccc(S(N)(=O)=O)cc3)C2=O)cc1 (stereo not shown) | 7.3%
64 | CCn1c(-c2ccc[nH]c2=O)nc2ccccc21 | -1.19%
65 | COc1ccc(NC(=O)c2ccc3nc(C)sc3c2)cc1 | 9.98%
66 | Cc1ccc(S(=O)(=O)N2CCOCC2)cc1NC(=O)Cn1nc(C)c([N+](=O)[O-])c1C | 5.83%

Row | Compound | hERG current change (%, negative = inhibition) at 10uM
67 | CCOC(=O)c1cnc2c(Cl)c(Cl)ccc2c1N1CCN(C)CC1.Cl | -55.5%
68 | COCCn1c(-c2ccc(-c3ccccc3Cl)o2)nc2c1c(=O)[nH]c(=O)n2CC(C)C | 24.5%
69 | O=[N+]([O-])c1cc(C(F)(F)F)ccc1NCC1CCCO1 (stereo not shown) | -5.59%
70 | O=S(N1CCCCC1)C12CC3CC(CC(C3)C1)C2 (stereo not shown) | -6.95%
71 | CC(C)CN1C(=O)c2ccc(NC(=O)Cc3ccccc3)cc2C1=O | 14%
72 | Cc1noc(C)c1S(=O)(=O)N(CC(=O)O)c1ccc2c(c1)OCO2 | -2.68%
73 | CCN(CC)CCCN=Cc1c(O)n(CCc2ccc(OC)c(OC)c2)c(=O)[nH]c1=O | -3.75%
74 | Cc1[nH]n(-c2ccc([N+](=O)[O-])cc2)c(=O)c1C=NCCc1c[nH]c2ccccc12 | 13.2%
75 | COc1ccc(OC)c(CCNC(=O)c2ccc3c(c2)N(Cc2ccc(F)cc2)CCS3)c1 | 15.1%
76 | C=CCn1c(SCC(N)=O)nnc1-c1cnccn1 | 6.67%
77 | CCN(CC)C(=O)CSc1n[nH]c(=S)n1N | 22.3%
78 | c1ccc(CNc2c3ccccc3nc3ccccc23)cc1 | -77.1%
79 | Cc1cc(C(=O)NCc2cccs2)cs1 | 11.7%
80 | CN(C)C(=O)c1ccccc1-c1ccccc1 | 7.64%
81 | O=C(NCCOc1ccccc1)C1CCC(=O)N(C2CCCCCC2)C1 (stereo not shown) | 7.29%
82 | Cc1nn(Cc2ccccc2Cl)c(C)c1C(=O)NC1CCCc2ccccc21 (stereo not shown) | -30.5%
83 | CCC1CCC(C(=O)NNC(=O)c2cc(-c3ccco3)[nH]n2)CC1 (stereo not shown) | 21.6%
84 | CC1CCCC/C1=N\NC(=S)NCCc1ccccc1 (stereo not shown) | -4.34%
85 | COC(=O)c1sccc1NC(=O)Cc1ccc(Br)cc1 | 4.61%
86 | COc1cc2c(cc1OC)CN(Cc1ccc(C)cc1)CC2 | -37.1%
87 | N#Cc1cccc(NC(=O)C2CCCN(C(=O)c3ccc(Cl)cc3)C2)c1 (stereo not shown) | -36.2%
88 | CCC(=O)NCCc1nc2cc(NC(=O)c3ccc(Cl)cc3)ccc2n1C | -18.1%
